# Test results as given in the supplement of paper PMC4967469.
# pIC50: −log10 of the molar value. By IC50 is meant the dose at which the fit gives 50% viability; a fit beyond the top or the lowest dose is shown as a bound at that dose. AUC sums up the same curve from the lowest dose to the 256-fold higher top dose; values near 1 show little effect. For some assays here: Where the top dose is marked as inferred, it comes from the curve model; the source does not state it.
# Columns and labels:
# Test in all cases: Viability of human cancer cell lines after 72 h of drug (GDSC screen)
# [1] = compound: C=CCNC1=C2C[C@@H](C)C[C@H](OC)[C@H](O)[C@@H](C)/C=C(\C)[C@H](OC(N)=O)[C@@H](OC)/C=C\C=C(/C)C(=O)NC(=CC1=O)C2=O [17-AAG]; details: top dose 1 µM
# Procedure: (§1)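 Human cancer cell lines in 384-well plates, medium with 10% serum, drug for 72 h over a 256-fold dose range (nine 2-fold or five 4-fold steps up to the top dose). Adherent lines were fixed and stained with the nucleic acid dye Syto60, suspension lines read with resazurin; signal relative to control wells, capped at 0 and 100%. One two-parameter sigmoid per drug and line, fitted in a mixed model over all curves with the slope shared within a line.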
# [2] = compound: CCc1cc(-c2n[nH]c(C)c2-c2ccc3c(c2)OCCO3)c(O)cc1O [CCT018159]; details: top dose 10 µM; top dose inferred
# Procedure: as §1
# [3] = compound: CS(=O)(=O)c1ccc(C(=O)Nc2ccc(Cl)c(-c3ccccn3)c2)c(Cl)c1 [Vismodegib]; details: top dose 10 µM; top dose inferred
# Procedure: as §1
# [4] = compound: O=C(c1ccc(C(=O)N2CCC(N3CCCC3)CC2)c(Nc2ccccc2)c1)N1CCC(N2CCCC2)CC1 [UNC1215]; details: top dose 1 µM; top dose inferred
# Procedure: as §1
# [5] = compound: CN(C)Cc1cccc(N=C(c2ccccc2)c2c(O)[nH]c3cc(C(=O)N(C)C)ccc23)c1 [BIX02189]; details: top dose 20 µM; top dose inferred
# Procedure: as §1
# [6] = compound: COc1cccc2cc(-c3nc([C@H]4CC[C@H](C(=O)O)CC4)n4ncnc(N)c34)[nH]c12 [OSI-027]; details: top dose 20 µM
# Procedure: as §1
# [7] = compound: Cc1cnc(Nc2ccc(F)cc2Cl)nc1-c1c[nH]c(C(=O)N[C@H](CO)c2cccc(Cl)c2)c1 [VX-11e]; details: top dose 5.12 µM; top dose inferred
# Procedure: as §1
# [8] = compound: Cc1cnc(Nc2ccc(OCCN3CCCC3)cc2)nc1Nc1cccc(S(=O)(=O)NC(C)(C)C)c1 [TG101348]; details: top dose 10.24 µM
# Procedure: as §1
# [9] = compound: COC(=O)CNC(=O)C(=O)OC [Dimethyloxalylglycine]; details: top dose 4000 µM; top dose inferred
# Procedure: as §1
Cell Line,AUC [1],pIC50 [1],AUC [2],pIC50 [2],AUC [3],pIC50 [3],AUC [4],pIC50 [4],AUC [5],pIC50 [5],AUC [6],pIC50 [6],AUC [7],pIC50 [7],AUC [8],pIC50 [8],AUC [9],pIC50 [9]
"JEKO-1 (B-cell lymphoma, suspension)",0.923,< 6.00,0.908,< 5.00,0.944,< 5.00,0.972,< 6.00,,,,,,,,,,
"JHOS-4 (ovary, adherent)",0.979,< 6.00,0.919,< 5.00,0.98,< 5.00,0.976,< 6.00,,,,,,,,,,
"KARPAS-1106P (B-cell lymphoma, suspension)",0.956,< 6.00,0.906,5.03,0.973,< 5.00,0.992,< 6.00,,,,,,,,,,
"KMS-11 (myeloma, suspension)",0.861,6.19,0.952,< 5.00,0.988,< 5.00,0.982,< 6.00,0.926,< 4.70,0.747,5.25,0.954,< 5.29,0.837,5.26,,
"KNS-62 (lung squamous cell carcinoma, adherent)",0.739,6.38,0.927,< 5.00,0.959,< 5.00,0.96,< 6.00,,,,,,,,,,
"MDA-MB-453 (breast, adherent)",0.732,6.50,,,0.985,< 5.00,0.984,< 6.00,0.959,< 4.70,0.279,6.56,0.975,< 5.29,0.889,< 4.99,0.965,< 2.40
"MEL-HO (melanoma, adherent)",0.524,,0.902,< 5.00,0.966,< 5.00,0.985,< 6.00,,,,,,,,,,
"MHH-CALL-2 (B-cell leukaemia, suspension)",0.936,6.03,0.953,< 5.00,0.996,< 5.00,0.993,< 6.00,,,,,,,,,,
"MOLM-16 (acute myeloid leukaemia, suspension)",0.823,6.30,0.741,5.56,0.952,< 5.00,0.986,< 6.00,,,,,,,,,,
"MOLT-16 (T-cell lymphoblastic leukaemia, suspension)",0.984,< 6.00,0.766,5.52,0.948,< 5.00,0.985,< 6.00,,,,,,,,,,
"MV-4-11 (leukaemia, suspension)",0.61,6.93,0.699,5.70,0.859,5.22,0.983,< 6.00,0.815,5.06,0.083,> 7.11,,,,,0.513,3.57
"NB69 (neuroblastoma, adherent)",0.759,6.50,0.931,< 5.00,0.989,< 5.00,,,0.965,< 4.70,0.351,6.29,0.848,5.50,0.794,5.38,0.445,3.74
